In all, about 81,000 sequences were measured (“one-hybrid fitness for binding parS DNA”: median about -0.17, highest 2% from about 0.51 on). The list shows a part of the results.
B1: Caulobacter ParB omega fusion; a variant is named by its letters at X, in order, B8GW30 (parent)
chain: MESVVVGEPGMSEGRRGLGRGLSALLGEVDAAPAQAPGEQLGGSREAPIEILQRNPDQPRRTFREEDLEDLSNSIREKGVLQPILVRPSPDTAGEYQIVAGERAWRAAQRAGLKTVPIMVRELDDLAVLEIGIIENVQRADLNVLEEALSYKVLMEKFERTQENIAQTIGKSXSHVANXMRLLXLPDEVQSYLVSGELTAXHARAIAAAADPVALAKQIIEGGLSVRETEALARKAPNLSAGKSKGGRPPRVKDTDTQALESDLSSVLGLDVSIDHRGSTGTLTITYATLEQLDDLCNRLTRGI

Variants of: B1
Assay: one-hybrid fitness for binding parS DNA (scaled: cognate 1, non-cognate 0); higher = stronger binding
Conditions: with parS DNA site
Method in brief: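 Fitness is the rescaled log change in variant-to-wild-type read ratio, measured by Illumina sequencing of plasmids before and after bacterial one-hybrid selection. The scale puts cognate at 1 and non-cognate at 0. Selection of Caulobacter ParB libraries, four specificity codons randomised, took place in E. coli USO with a HIS3 reporter, site 19 bp from the promoter, over 48 hours at 37°C on M9-minus-histidine with 0.1 mM IPTG and 5 mM 3-AT.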

RTPQ and GFGG cannot be ordered by “one-hybrid fitness for binding parS DNA” value: no more than 0.2 for the first, no more than 0.2 for the second.

MRHK and PANM cannot be ordered by “one-hybrid fitness for binding parS DNA” value: no more than 0.2 for the first, no more than 0.2 for the second.

FAFI and PMIP cannot be ordered by “one-hybrid fitness for binding parS DNA” value: no more than 0.2 for the first, no more than 0.2 for the second.

CMQS and DTGT cannot be ordered by “one-hybrid fitness for binding parS DNA” value: no more than 0.2 for the first, no more than 0.2 for the second.

WLYG and RCSE cannot be ordered by “one-hybrid fitness for binding parS DNA” value: no more than 0.2 for the first, no more than 0.2 for the second.

NRRI and ASHS cannot be ordered by “one-hybrid fitness for binding parS DNA” value: no more than 0.2 for the first, no more than 0.2 for the second.

VWAD and SHHE cannot be ordered by “one-hybrid fitness for binding parS DNA” value: no more than 0.2 for the first, no more than 0.2 for the second.

LDWR and GCPM cannot be ordered by “one-hybrid fitness for binding parS DNA” value: no more than 0.2 for the first, no more than 0.2 for the second.

KTFF and QYHY cannot be ordered by “one-hybrid fitness for binding parS DNA” value: no more than 0.2 for the first, no more than 0.2 for the second.

MPNG and QYML cannot be ordered by “one-hybrid fitness for binding parS DNA” value: no more than 0.2 for the first, no more than 0.2 for the second.

VDTI and PMCT cannot be ordered by “one-hybrid fitness for binding parS DNA” value: no more than 0.2 for the first, no more than 0.2 for the second.

HELV and KSVW cannot be ordered by “one-hybrid fitness for binding parS DNA” value: no more than 0.2 for the first, no more than 0.2 for the second.

Going from RSDN to KKQM, the “one-hybrid fitness for binding parS DNA” value falls from 0.313 to no more than 0.2.

WIKT and NRQW cannot be ordered by “one-hybrid fitness for binding parS DNA” value: no more than 0.2 for the first, no more than 0.2 for the second.

TNLR and AIQT cannot be ordered by “one-hybrid fitness for binding parS DNA” value: no more than 0.2 for the first, no more than 0.2 for the second.

QCFL and PVWF cannot be ordered by “one-hybrid fitness for binding parS DNA” value: no more than 0.2 for the first, no more than 0.2 for the second.

MYVI and ERSF cannot be ordered by “one-hybrid fitness for binding parS DNA” value: no more than 0.2 for the first, no more than 0.2 for the second.

PRDS and PHQY cannot be ordered by “one-hybrid fitness for binding parS DNA” value: no more than 0.2 for the first, no more than 0.2 for the second.

YWMS and YEKK cannot be ordered by “one-hybrid fitness for binding parS DNA” value: no more than 0.2 for the first, no more than 0.2 for the second.

TWNS and YVMR cannot be ordered by “one-hybrid fitness for binding parS DNA” value: no more than 0.2 for the first, no more than 0.2 for the second.

GTKM and ASIW cannot be ordered by “one-hybrid fitness for binding parS DNA” value: no more than 0.2 for the first, no more than 0.2 for the second.

KSTS and EAPA cannot be ordered by “one-hybrid fitness for binding parS DNA” value: no more than 0.2 for the first, no more than 0.2 for the second.

MDCF and AAKH cannot be ordered by “one-hybrid fitness for binding parS DNA” value: no more than 0.2 for the first, no more than 0.2 for the second.

LATI and IQMR cannot be ordered by “one-hybrid fitness for binding parS DNA” value: no more than 0.2 for the first, no more than 0.2 for the second.

QSSP and TVWR cannot be ordered by “one-hybrid fitness for binding parS DNA” value: no more than 0.2 for the first, no more than 0.2 for the second.

QLFW and GHAR cannot be ordered by “one-hybrid fitness for binding parS DNA” value: no more than 0.2 for the first, no more than 0.2 for the second.

WTDR and VLGS cannot be ordered by “one-hybrid fitness for binding parS DNA” value: no more than 0.2 for the first, no more than 0.2 for the second.

RYTV and IYGS cannot be ordered by “one-hybrid fitness for binding parS DNA” value: no more than 0.2 for the first, no more than 0.2 for the second.

NKSV and FIKS cannot be ordered by “one-hybrid fitness for binding parS DNA” value: no more than 0.2 for the first, no more than 0.2 for the second.

Going from DIMG to RIWM, the “one-hybrid fitness for binding parS DNA” value rises from no more than 0.2 to 0.361.

QRVW and SMTL cannot be ordered by “one-hybrid fitness for binding parS DNA” value: no more than 0.2 for the first, no more than 0.2 for the second.

QTCC and ARRN cannot be ordered by “one-hybrid fitness for binding parS DNA” value: no more than 0.2 for the first, no more than 0.2 for the second.

AERY and PYSW cannot be ordered by “one-hybrid fitness for binding parS DNA” value: no more than 0.2 for the first, no more than 0.2 for the second.

LMPK and HGRL cannot be ordered by “one-hybrid fitness for binding parS DNA” value: no more than 0.2 for the first, no more than 0.2 for the second.

PVQV and TVLV cannot be ordered by “one-hybrid fitness for binding parS DNA” value: no more than 0.2 for the first, no more than 0.2 for the second.

MFVW and LGTF cannot be ordered by “one-hybrid fitness for binding parS DNA” value: no more than 0.2 for the first, no more than 0.2 for the second.

RQSR and CTPT cannot be ordered by “one-hybrid fitness for binding parS DNA” value: no more than 0.2 for the first, no more than 0.2 for the second.

HAWR and HFFG cannot be ordered by “one-hybrid fitness for binding parS DNA” value: no more than 0.2 for the first, no more than 0.2 for the second.

SAKL and ETIG cannot be ordered by “one-hybrid fitness for binding parS DNA” value: no more than 0.2 for the first, no more than 0.2 for the second.

AMSE and TPYV cannot be ordered by “one-hybrid fitness for binding parS DNA” value: no more than 0.2 for the first, no more than 0.2 for the second.

NVNC and MACL cannot be ordered by “one-hybrid fitness for binding parS DNA” value: no more than 0.2 for the first, no more than 0.2 for the second.

HPRT and NPLC cannot be ordered by “one-hybrid fitness for binding parS DNA” value: no more than 0.2 for the first, no more than 0.2 for the second.

Source: a collection of fitness landscapes (doi:10.1016/j.celrep.2020.107928)
